Laboratory results from the supplement of paper PMC11417369.
± gives the standard deviation of the averaged measurements. This is one part of the list.

System: PfAP2-G AP2 domain (GST-tagged)
Experiment: gcPBM binding intensity (ln(normalized median fluorescence intensity)); higher = stronger DNA binding
Outline: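 Binding intensity values are the highest Masliner-normalised natural-log median intensity among replicate spots of either probe orientation. The binding step lasted 1 h in 1× PBS with 1% milk, 0.2 mg/ml BSA, 0.5% salmon testes DNA and 0.03% Triton X-100, using GST-tagged P. falciparum DNA-binding domains expressed in E. coli on an Agilent 4 × 180k array of primer-extended double-stranded 36-bp intergenic genomic probes plus negative controls. Alexa488 anti-GST antibody and a 488 nm scan detected bound protein.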

Sequence	gcPBM binding intensity (ln)
TGATTAAATAAATATATATATTTATATATTATACAG [CACACA_negctrl_site1596]	9.9 ± 0.38
TATATTTATTATAATTGTACATAAAATAAACTAAGA [XGTACX_site4318]	11.1 ± 0.79
AAATAATTAAACATATGTACATATTATATATATATA [XGTACX_site6774]	11.2 ± 0.53
TCCTCATTTTATCATACACACTTGTTTATATGGGTG [CACACA_site4650]	10.3 ± 0.15
ACCCATAAAAATTATGCACACTTAATAAAGCGAAAT [CACACA_site5722]	10.1 ± 0.11
ATAATTTATTTTAAAAGTACTCAATTTGCTTTTCTC [XGTACX_site5749]	11.3 ± 0.97
TTTACAAAAAATTATACACACACGTACAGATAAATA [CACACA_site4678]	11.5 ± 0.81
GCTAATTTATTTTGCAGTACATATATAATAATATAT [XGTACX_site478]	10.9 ± 0.67
AATATTTATATTTAGTGTACAGAAATAAAAAAAAAA [XGTACX_site6066]	11.3 ± 0.93
CAAAAAAAAAAAAAAACACACATTAAATTAGAAAGA [CACACA_site7271]	9.64 ± 0.14
ATATACATTTAAATGTGTACATAATAAAATAAAAAA [XGTACX_site8170]	11.5 ± 1
ACATCTGTTATTTGTGGTACTAAAAAAATATATAGT [XGTACX_site8322]	11.2 ± 0.76
TCTTTTTAGATATATACACACCGTGTCTACCTATAC [CACACA_site7551]	10.1 ± 0.23
ATATTCCTACATACAACACACGACGTTCTCATAAGA [CACACA_site231]	10.1 ± 0.13
GGAAAATGAAAAACAAAAAAAAAAAAAAAAAAATGA [TGCATGCA_negctrl_site432]	9.64 ± 0.13
AAAAATAGACAAAAGAGTACAAGAAAAAAAGGGTTC [XGTACX_site7843]	11.3 ± 0.77
TTGATCTATAATAATACACACTTACATAATTAATTA [CACACA_site6273]	9.96 ± 0.16
ATATATATATATGTCTGTACATAAAAAATAATAAAT [XGTACX_site3122]	11.1 ± 0.7
TTTTAAAGTTGTGAGCTTCATTTTTATTTATATGTA [CACACA_negctrl_site1505]	9.87 ± 0.057
TTACAATTAATAAAGTGTACTTAACTATTATATATA [XGTACX_site481]	11.3 ± 0.95
TTTTTAAATATAAACAAAAAAAAAAAATATATCAAT [XGTACX_negctrl_site328]	9.805 ± 0.064
ATCATATTTATGTTGGTGCATTATGCATGGATTTTA [GTGCAC_site9795]	9.915 ± 0.021

Sequence	gcPBM binding intensity (ln)
ATTTTTATTTTTATTTGTACTTATATATTCTTAAGC [XGTACX_site4122]	11.3 ± 0.8
ATAATATAAATACAAACACACAATTGTGTCCACATT [CACACA_site6920]	11.4 ± 0.87
AATACCCAAGGACACACACACACATATATATATATA [CACACA_site8345]	10.9 ± 0.55
ATTAAAAAAGAATATACACACCAAAACTGTTTGTTA [CACACA_site4687]	9.825 ± 0.021
TAAAAAAATTTAACATGTACAAATATTGAAAAGGAC [XGTACX_site7608]	11.1 ± 0.47
GAAGAATAAATATGCACACATGCATATATTTTTACA [CACACA_site3459]	9.88 ± 0.071
TTTATTATCTTATTCACACACATATATATATATATA [CACACA_site2869]	10.3 ± 0.54
ATATATTTTTACCATACACACATATAACAAATATAT [CACACA_site7706]	10.3 ± 0.16
AGAAAAAAAAAAAAAAAAAAAAAATTGAATATATAT [TGCATGCA_negctrl_site55]	9.29 ± 0.12
TACAATTCGTAATACACACACATATATATATATATT [CACACA_site3751]	9.93 ± 0.071
AGAGCATAATAAAACACACACATACATACCTATATA [CACACA_site6566]	9.92 ± 0.057
AAAAAATATTGAAGTACACACATTATGAACTTTTTT [CACACA_site1733]	11.6 ± 0.88
ATAAATAATTATAATTGTACACATATATATATATAC [XGTACX_site3998]	11.4 ± 0.76
TTCCACATTTTACAGACACACACAATTTATATTACG [CACACA_site8572]	10.2 ± 0.18
AAATATATATAAATGAGTACTTATGGTAACATATAT [XGTACX_site6362]	11.4 ± 0.73
AATAAATTAATTTTGGGTACATATATATATATATAT [XGTACX_site3807]	11.3 ± 0.91
TGTTTTTATAATATTAGTACATAATATACATAATTC [XGTACX_site2787]	11.1 ± 0.85
GTAAGTTGTGCATTCACACACATATATATATATATA [CACACA_site3303]	10.4 ± 0.55
TTTTGTTTCTATATAAGATGGAAATATAAACTTGTA [CACACA_negctrl_site82]	9.95 ± 0.2
TTAAGATCCTAAAAAACACACAATTGTGAATAATAA [CACACA_site3872]	10.2 ± 0.16
TATATATATATATATACATGCATATATATAATATAT [TGCATGCA_site763]	9.91 ± 0.59
AATCCTTTACGACACACACACAAAAAAAAAAAAAAA [CACACA_site6449]	10.2 ± 0.52

Sequence	gcPBM binding intensity (ln)
AATATTTTAATGCACACACACAAAAAAAAAAAAAAA [CACACA_site7374]	10.2 ± 0.59
AAAGTAGAATATCCCCTACACACCCAAATAATTTAC [CACACA_site1255]	10.26 ± 0.035
TTTTTCTTTCTTTCTTTTTTAATATTACAAATGTAT [XGTACX_negctrl_site267]	10.2 ± 0.18
TTATTAAAACAAAATGTACACACATATAATTTAATG [CACACA_site8193]	11.3 ± 0.73
TTCAATGCATGTCCATGTACATATAAAAAAAAATAC [XGTACX_site1597]	11.4 ± 0.73
TGTTGGCAGGTGAATGCATGCATATAAGTCTATCTG [TGCATGCA_site781]	9.86 ± 0.014
CACCCTTTACACAAGGTGCATACTTTATTATATTTT [GTGCAC_site9778]	10.16 ± 0.078
AACCACATACCTATAACACACATATACAATATAGAT [CACACA_site7023]	10.05 ± 0.071
ACATCATAGAAAAATTGATATATATATATATATATA [CACACA_negctrl_site130]	9.84 ± 0.54
TCCACAAAGCATGTAACACACAACATATAAGACATA [CACACA_site972]	10.1 ± 0.16
TATATATTTTATTTATGTACGAAAATAAATTAAATT [XGTACX_site3628]	11.1 ± 0.79
TTAAAAAAATTAATATGTACATATATTTATATATAT [XGTACX_site5317]	11.2 ± 0.7
TATTAAAAAGAGGTGACACACACATATAAATCTAAA [CACACA_site9243]	10.2 ± 0.19
TTATTCTTTAACTAAAATTATATATATATATTATAC [CACACA_negctrl_site1597]	9.845 ± 0.049
TTGTATGCTTCCCGACTACATTATGCCATAAATGTA [TGCATGCA_negctrl_site136]	10 ± 0.11
TATTATATATATAGGTGTACGCATTTGTCCTTTATA [XGTACX_site1385]	11.7 ± 1.1
AAACTTATGTTTACATGTACAGAACTTTATATTATG [XGTACX_site4843]	11 ± 0.45
TCGAACATTAACATAACACACATATAGATTTATATA [CACACA_site7380]	9.81 ± 0.028
ATTACATATGTGAGTTGTACTATAAATATATAATAT [XGTACX_site3718]	11.1 ± 0.6
ATAACTTATTTTTAAAGTACATTATTATATATATAT [XGTACX_site1620]	11.1 ± 0.69
ATTGTAATAAATTGTAGTACATGTAAGGTTTTATTT [XGTACX_site1005]	11.6 ± 0.77
AATAAAAATATATCCACACACATATATAAATATGTA [CACACA_site6415]	10 ± 0.25

Sequence	gcPBM binding intensity (ln)
ATGCTTTTTTATAAAAGTACATAAAGTTTTTACACT [XGTACX_site7307]	11.3 ± 0.81
CTGCCTTCCATACCCACACACTTCCCATATATTTTA [CACACA_site5491]	10.2 ± 0.21
ATTCTTTTATTTAGTAGTACATTTGTATTTTATTCA [XGTACX_site5790]	11.5 ± 0.95
GATCCTGGTTCTTGTGGTACTTGTTCATTTGTTATA [XGTACX_site7164]	11 ± 0.56
AAAACAAACATTACACGTACAAAACAAGTTATAGAC [XGTACX_site6320]	11.4 ± 0.74
TTTTTGATATTAAAGGGTACATTATTTACAAAAAAA [XGTACX_site5284]	11.2 ± 0.81
ACAAACAAAGAAAGAACACACATACACAAGATACCT [CACACA_site7353]	10.1 ± 0.12
TGAATATTTTATGATTGTACATATTATAATAAACAT [XGTACX_site6113]	11 ± 0.69
TTTTTTATTGTGAAACTGATATTATATTTTTTATAA [GTGCAC_negctrl_site559]	9.635 ± 0.049
TAAAGTGTAAAATTCACACACATATAAATAAATATA [CACACA_site6765]	9.95 ± 0.071
ATATATTTTATACATACACACATATATATATTTTTT [CACACA_site3940]	9.98 ± 0.071
TGATTAAATCAAGAAAGTACAAAATGAAATATATAA [XGTACX_site4319]	11 ± 0.63
AAAATAATTTTATAGTTGCACTATATCGTATACAAT	10.14 ± 0.064
TTTTCATTAAGATACTTATAATAGTTTATTAGTAAA [CACACA_negctrl_site586]	9.95 ± 0.15
TTACAAATATTATAATGTACCCATTTTTTTTGCCTT [XGTACX_site6612]	11.3 ± 0.83
TTTAAAAAAAAAAATACACACATAAAAGTTTTCAAA [CACACA_site6471]	9.815 ± 0.049
TACAAAAGCTATAACATTCACCACATTATAAAAATA [CACACA_negctrl_site1112]	9.77 ± 0.057
AATTCAAAGAAAAACTGTACGTGTAGCAAACATCCT [XGTACX_site599]	11.5 ± 0.93
TAATATGAAGATGGCAGTACTCTAGTCAATTTTTAC [XGTACX_site5375]	10.7 ± 0.36
AAAATATATAAATATACATGCATAATTAATAGTATA [TGCATGCA_site804]	9.8 ± 0.19
CTTTTTTTTTTTTTTTGTCCGTATGAGGGACCTATA [XGTACX_site8839]	11.1 ± 0.86
ATATCATCTTCTCTATCATTTTTTTTTTTTTTTTTT [CACACA_negctrl_site1220]	10.4 ± 0.27
